Measurements reported in paper PMC10653921 (mBio, 2023).

What was measured:
TlpQ-LBD (PA2654) = TlpQ-LBD (PA2654) (Pseudomonas aeruginosa, UniProt Q9I0I4); assay: biochemical
PctC-LBD (PA4307) = PctC-LBD (PA4307) (Pseudomonas aeruginosa, UniProt Q9HW93); assay: biochemical
PctP-Tar (PA1608-Tar) = details: read-out: EC50 by FRET ^ a; attractant response, tethering buffer pH 7.0, Hill fit
PctP-LBD (PA1608) = PctP-LBD (PA1608) (Pseudomonas aeruginosa, UniProt Q9I3B3); details: two symmetric sites, negative cooperativity, stronger site (second site weaker)
PctA-LBD (PA4309) = PctA-LBD (PA4309) (Pseudomonas aeruginosa, UniProt G3XD24); assay: biochemical

For NCCc1ccccc1 [2-Phenylethylamine], the Kd (TlpQ-LBD (PA2654)) was 410 ± 12 µM.
For NCCCCC(=O)O [5-Aminovalerate], the Kd (PctC-LBD (PA4307)) was 28 ± 2 µM.
In the case of Nc1ncnc2[nH]cnc12 [Adenine], the EC50 (PctP-Tar (PA1608-Tar)) is reported as 39.5 ± 4.5 µM.
Work on Nc1ncnc2c1ncn2[C@@H]1O[C@H](CO)[C@@H](O)[C@H]1O [Adenosine] yielded an EC50 (PctP-Tar (PA1608-Tar)) of 3.9 ± 0.8 µM.
Work on Nc1nc2[nH]cnc2c(=O)[nH]1 [Guanine] yielded an EC50 (PctP-Tar (PA1608-Tar)) of 0.6 ± 0.1 µM.
Molecule Nc1nc2c(ncn2[C@@H]2O[C@H](CO)[C@@H](O)[C@H]2O)c(=O)[nH]1 [Guanosine] has an EC50 (PctP-Tar (PA1608-Tar)) of 0.4 ± 0.05 µM.
O=c1[nH]cnc2nc[nH]c12 [Hypoxanthine] was tested, and the “KD by ITC ^ b” value (PctP-LBD (PA1608)) was 43 µM and the EC50 (PctP-Tar (PA1608-Tar)) was 1.6 ± 0.2 µM.
In the case of O=c1[nH]cnc2c1ncn2[C@@H]1O[C@H](CO)[C@@H](O)[C@H]1O [Inosine], the EC50 (PctP-Tar (PA1608-Tar)) is reported as 8.2 ± 1.9 µM.
NCCC[C@H](N)C(=O)O [L-Ornithine] showed a Kd (PctA-LBD (PA4309)) of 7.1 ± 0.5 µM.
COC(=O)CCCN [Methyl 4-aminobutyrate] was tested, and the Kd (PctC-LBD (PA4307)) was 129 ± 2 µM.
Molecule NCCc1ccc(O)cc1 [Tyramine] has a Kd (TlpQ-LBD (PA2654)) of 100 ± 7 µM.
